Source: the supplement of paper PMC10126150
Values marked as one replicate rest on one cluster of the flow cell; about a third of the high ones do not repeat.

The sequences below were run on ATP (assay: switch fluorescence ratio, 500 uM ATP over buffer (Cy3 cluster intensity, sum of 5 cycles each) (fold (ratio)); higher = stronger signal-on switching upon ATP binding; sequences stand for … in TCGTCGGCAGCGTCAGATGTGTATAAGAGACAGTTTTTTTTTTTTTTTTTTTTTTTTT…TC). Details: aptamer strand: ATP DNA aptamer (quencher-CACCTGGGGGAGTATTGCGGAGGAAGG + anchor), 100 nM annealed; ATP concentration: 500 uM; one replicate.
Method in brief: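 For every switch-domain sequence, the fluorescence ratio is the mean of per-cluster values, each being summed target-cycle Cy3 intensity over summed buffer-cycle Cy3 intensity. Clusters outside 100-1000 RFU were excluded. On a modified Illumina MiSeq flow-cell, the Cy3-labelled switching-strand clusters were annealed to 100 nM quencher-labelled ATP aptamer, imaged in selection buffer and then after 15 min with 500 uM ATP at 22 °C. Five such cycles were run, with NaOH stripping and re-annealing between them.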
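Note: ATP exposure 15 min at 22 °C before imaging.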

Sequence | switch fluorescence ratio
CAATTATAAC | 1.04
CAATTATGCT | 1.01
CAATTCGCCC | 1.15
CAATTCTTAG | 1.01
CAATTTAAGT | 1.01
CAATTTAGTT | 0.977
CAATTTGCAT | 0.957
CACAAAGTCT | 1.01
CACAAATCAA | 1.03
CACAACAACG | 1.07
CACAAGTAAC | 1.12
CACAAGTTCG | 1.02
CACAATATT | 1.04
CACACATAGG | 1.08
CACACCTGGA | 1.11
CACACTGGCT | 1
CACAGAATGC | 1.08
CACAGATGAA | 1
CACAGATTGA | 0.991
CACAGATTTA | 1.01
CACAGGAGAC | 1.05
CACATAACGC | 1.11
CACATAGGGG | 1.14
CACATCCGCC | 1.63
CACATCCGCT | 1.32

Sequence | switch fluorescence ratio
CACATGACCG | 1.09
CACATGCGCG | 0.955
CACATTATCC | 1.13
CACATTTCTT | 0.998
CACCAACCCG | 1.17
CACCAAGTAT | 0.983
CACCAGGGAT | 1.4
CACCCCGGGC | 1.1
CACCCGCCTG | 1.17
CACCCTGTCG | 1.05
CACCGAAAAT | 1.02
CACCGAGGAT | 0.999
CACCGCGTTT | 1.47
CACCGCTTCT | 1.74
CACCGGTGAC | 1.06
CACCGTCTTC | 1.05
CACCTAGGCC | 1.05
CACCTCAATG | 1.1
CACCTCGCCA | 1.19
CACCTGCCTT | 1.1
CACCTGGCAT | 1.14
CACCTGGCCC | 1.02
CACGAACCT | 1.7
CACGACCGGC | 1.07
CACGACGGTT | 1.09

Sequence | switch fluorescence ratio
CACGACTCAC | 1.39
CACGACTTTA | 1.03
CACGAGCTGT | 1.04
CACGATCGCC | 1.1
CACGCACGAA | 1.58
CACGCCCTAG | 1.11
CACGCCGCAT | 1.83
CACGCGGAAA | 1.04
CACGCTTCTT | 0.987
CACGGAGTCT | 1.02
CACGGGCAAA | 1.02
CACGGTAGCT | 1.11
CACGTAAACC | 1.24
CACGTATATG | 1.13
CACGTCTTAC | 1.34
CACGTCTTTG | 1.01
CACGTGGCTT | 1.01
CACGTGGTGT | 0.998
CACTAAGGAT | 1.27
CACTAATCCC | 1.07
CACTAATTGT | 0.996
CACTACCAAC | 1.25
CACTAGCGCA | 1.02
CACTAGGAGA | 0.996
CACTATAGGG | 0.987

Sequence | switch fluorescence ratio
CACTATGAGC | 0.973
CACTCAGCC | 1.1
CACTCTCAAA | 1.04
CACTCTTCAC | 1.06
CACTGAGAAA | 1
CACTGATCAC | 1.07
CACTGCGGGG | 1.03
CACTGGACTA | 1.15
CACTGGGCGC | 0.994
CACTGGTGCT | 1.16
CACTGGTGTT | 1.16
CACTGTACTG | 1.72
CACTGTCGTT | 1.02
CACTGTGGAT | 1.01
CACTTAAATT | 1.05
CACTTACGAA | 1.27
CACTTAGCAT | 1.14
CACTTGAAGA | 1.02
CACTTGGCGA | 1.01
CACTTGGTCT | 0.946
CACTTTACCC | 1.28
CACTTTAGGG | 0.952
CACTTTCGGT | 0.965
CACTTTTTCG | 1.01
CAGAAAAGTT | 0.973

Sequence | switch fluorescence ratio
CAGAAAATTA | 1.15
CAGAACACAT | 1.12
CAGAAGGAGA | 0.952
CAGAAGGCAA | 3.52
CAGAATCGGG | 1.03
CAGAATTTTT | 0.992
CAGACACTGT | 0.998
CAGACGCATA | 4.26
CAGACGCGTG | 1
CAGACGTGTC | 0.966
CAGACTTGTG | 1
CAGAGAGTCT | 1.07
CAGAGGGAGA | 1.04
CAGAGGGCAT | 1.05
CAGATAAGTC | 0.989
CAGATACTGG | 1.03
CAGATAGGAT | 1.01
CAGATAGTAC | 1.06
CAGATCGTCT | 1.05
CAGATGAGAT | 0.98
CAGATGGGTG | 1.06
CAGATTATGA | 0.943
CAGATTCAGC | 1.02
CAGATTCCAG | 1.02
CAGCAAATCT | 1.48

Sequence | switch fluorescence ratio
CAGCACGATG | 0.989
CAGCCAAGCG | 1.09
CAGCCAAGGG | 1.01
CAGCCCACCA | 1.03
CAGCCCGAAG | 1.06
CAGCCTCGGT | 1.06
CAGCCTTTTT | 0.998
CAGCGACAGG | 1.04
CAGCGATATT | 1.71
CAGCGCGATG | 1.02
CAGCGCTCCA | 1.09
CAGCGGGAGC | 0.957
CAGCGGGCG | 1.01
CAGCGGGTC | 1.03
CAGCGTTGGC | 1.01
CAGCTACAAT | 1.02
CAGCTAGCAA | 3.45
CAGCTCAATT | 1.01
CAGCTCACGG | 1.05
CAGCTGG | 1.06
CAGGAACAAT | 1.26
CAGGACGGCC | 1
CAGGACGGTA | 1.09
CAGGAGGGTG | 1.06
CAGGAGTTGC | 1.05

Sequence | switch fluorescence ratio
CAGGATACGT | 1.06
CAGGATTTCC | 0.979
CAGGCAAATC | 1.37
CAGGCAGCGA | 1.34
CAGGCAGGCC | 0.941
CAGGCAGGTT | 1.03
CAGGCCACCG | 0.986
CAGGCCGGAA | 1.01
CAGGCGATTC | 1.21
CAGGCGGAGC | 1.03
CAGGCTAACA | 1.01
CAGGCTATCA | 1.02
CAGGCTTTC | 1.02
CAGGGAATTT | 0.988
CAGGGATCCG | 0.98
CAGGGATGC | 1.15
CAGGGCGCCG | 0.989
CAGGGGACCA | 1.02
CAGGGGGTGG | 1.04
CAGGGTACAT | 1
CAGGGTGGC | 1.07
CAGGGTTACG | 0.961
CAGGGTTTGT | 0.992
CAGGTACGTA | 1.01
CAGGTATTTA | 1.02

Sequence | switch fluorescence ratio
CAGGTCCATA | 0.977
CAGGTCCCC | 1.01
CAGGTCCTTC | 0.971
CAGGTCGCAC | 0.999
CAGGTCGGGT | 1.05
CAGGTGCAGC | 1.05
CAGGTGTAAT | 1.03
CAGGTTGAAA | 0.982
CAGTAAAG | 0.971
CAGTAATACT | 7.03
CAGTAATCAG | 1.01
CAGTACCTAT | 1.06
CAGTACGCGC | 1.18
CAGTAGCAGG | 1.36
CAGTAGGTGC | 1.11
CAGTATCAGC | 1.02
CAGTCAAGCA | 1.04
CAGTCAGACC | 1.06
CAGTCAGCC | 1.02
CAGTCAGGCG | 0.957
CAGTCATCGG | 1
CAGTCCCTGC | 1.08
CAGTCCTTGG | 0.998
CAGTCGCACT | 1.17
CAGTCTACAA | 1.01
